Measurements as given in a compilation of properties of binary mixtures (doi:10.1016/j.molliq.2010.11.001).
The densities may have been worked out from excess volumes.

Test: xn = mol fraction of the nth substance listed
Conditions: 101 kPa

CO + CCCCCC[n+]1ccn(CCC#N)c1.[Br-]
x1 = 1
Conditions | mass density [kg/m3]
293.15 K | 791.1
298.15 K | 786.5
303.15 K | 781.8
308.15 K | 777
313.15 K | 772.3
318.15 K | 769.6
323.15 K | 765.1

CCCCCC[n+]1ccn(CCC#N)c1.[Br-] + CO
mass density [kg/m3]
Conditions | x2 = 0 | x2 = 0.1822 | x2 = 0.2348 | x2 = 0.3192 | x2 = 0.4059 | x2 = 0.5169 | x2 = 0.592 | x2 = 0.7084 | x2 = 0.8019 | x2 = 0.9011
293.15 K | 1234.9 | 1224.1 | 1220.3 | 1213.5 | – | – | 1180.5 | 1153.9 | 1112.3 | –
298.15 K | 1230.5 | 1219.9 | 1216 | 1209.3 | 1201.1 | 1188.4 | 1176.4 | 1149.6 | 1107.6 | 989.2
303.15 K | 1227.2 | 1216.8 | 1212.9 | 1206.2 | 1198.1 | 1185.1 | – | 1145.8 | – | 985.1
308.15 K | 1223.1 | 1213 | 1209.1 | 1202.4 | 1194.2 | – | – | 1141.4 | 1099.3 | 981.1
313.15 K | 1220.4 | 1210.5 | 1206.6 | 1199.9 | 1191.6 | 1178.1 | 1165.9 | 1138 | 1095 | –
318.15 K | 1215.1 | 1205.6 | 1201.8 | 1195.2 | 1187.1 | 1173.5 | – | 1134 | 1090.5 | 973.3
323.15 K | 1211.4 | 1202.2 | 1198.3 | 1191.8 | 1183.7 | 1170 | 1158 | 1130 | 1086.5 | 968.9
